Experimental findings from the RNAGym collection of RNA variant scans (doi:10.7554/elife.90254) are described below.

The source gives no read counts; variants with many changes may rest on few reads.

First the molecules themselves.
B1: OR4K15 (parent)
chain: GUUAACGGUCAUAGGCCAUGGAAACUAGGAGCACCAUUUCGCUGCCAGUGAAGAAAUGAACAAAGAAAAUCUGGGCCAGGCAGGCAUCAAAAGAAAUAGUCUUGCGCUCAACCAGAAAGUCUGUAAUCAUUUUAAGGGUA

The variants in this data set derive from B1. Put plainly: self-cleavage, relative activity (ratio to wild type); higher = more cleavage; in vitro, sequencing; the parent is a self-cleaving ribozyme.
For A5U U9A A22U A67G, the self-cleavage stood at 1.37.

Turning to G7A C34A C61U, the self-cleavage came to 1.9.

In the case of A5G U9C A89G A94G U100C, the self-cleavage worked out at 1.48.

For U9A A66G A82G A114U A140C, the self-cleavage stood at 0.06.

In the case of A5G G74A A92G U108C U120C, the self-cleavage worked out at 0.01.

With C6U U26C U38C, the self-cleavage was 1.37.

Regarding U9A A51U U102C, the self-cleavage was determined as 1.51.

Consider G7A A18G A78G U108C A114G, for which the self-cleavage is 0.

For A5G A111G A116G U131C, the self-cleavage was determined as 0.01.

For A5G U19C A129G, the self-cleavage was determined as 0.51.

As for A5G U19A A60G A78C A92G A111G A129G, the self-cleavage was determined as 0.01.

With A5G U26C A63G A95G, the self-cleavage was 2.06.

As for U9A A55G A78G U108C A114G, the self-cleavage stood at 0.02.

As for G7A A47U A91G U122C, the self-cleavage turned out to be 0.69.

C6A A23G A27C: the self-cleavage was 0.35.

As to A5G A91U A110G, the self-cleavage came out at 0.4.

For A5G A68G U102A, the self-cleavage came to 1.42.

As for A5G U49C A54G U102C A135G, the self-cleavage turned out to be 1.4.

As for A5U A22U A59G U108C A116G, the self-cleavage amounted to 0.04.

With A5G G14A A30G C46U A82G A92G A118G A126G, the self-cleavage came out at 0.08.

In the case of G7U A23G A54G U72C G115A, the self-cleavage was determined as 0.04.

As for G8A C17U A68G A89G A110G, the self-cleavage is 0.26.

As to U9A A68G A69G U70C, the self-cleavage is 0.12.

In the case of A5G U49C A125C, the self-cleavage is 0.26.

Regarding A5U A13U C113U U139C, the self-cleavage was found to be 0.22.

Take A5U U57C A125U: the self-cleavage was found to be 1.01.

For the variant U9A U37C U108C A135G, the self-cleavage worked out at 0.01.

Regarding A5G U9C U49C, the self-cleavage was 1.34.

Turning to A5G C17U A59U A96G, the self-cleavage stood at 1.07.

Take U9A A64G A116U: the self-cleavage was 0.06.

With G7U A30G U49C A66G A92G U127C, the self-cleavage was 0.99.

As to C6A U9C U122C, the self-cleavage was found to be 0.62.

Take A5U C71U G136U: the self-cleavage is 0.85.

As for U9A A22G U39C A59G, the self-cleavage is 1.79.

Turning to U9A A66G A98G, the self-cleavage turned out to be 1.27.

In the case of G7A U38C U87C, the self-cleavage turned out to be 0.19.

Consider G7A A24C U102C A116G, for which the self-cleavage was found to be 1.57.

G8A U12A U26C A114G: the self-cleavage was 0.67.

For the variant U9A A59G A78G A111G, the self-cleavage came out at 0.03.

Turning to G7U U9C U37C A56G U127C, the self-cleavage was determined as 0.53.

For G8A A24G U108C, the self-cleavage amounted to 0.03.

Take A5G U9A A54C A62G C128U: the self-cleavage was 1.39.

With U9A G73A U131C, the self-cleavage stood at 0.14.

As for A5G G29C U38C A95U A96G, the self-cleavage came out at 0.62.

On to A5G U57C A64G A111U, for which the self-cleavage was determined as 0.1.

Regarding A5G U9C A68G A82U U103C A111G, the self-cleavage is 0.07.

Turning to C6U A24U A54G A78U A89C A116G A140G, the self-cleavage worked out at 0.08.

In the case of A5G A126G U130C, the self-cleavage worked out at 0.47.

For A5U G20U A30G U37C A86G U127A, the self-cleavage was determined as 1.75.

As to U9A A33G U38A C81A A125U, the self-cleavage was found to be 0.16.

For the variant A5G A78G U108C A117G, the self-cleavage was determined as 0.04.

With U9A A11G A62C U103C, the self-cleavage stood at 0.95.

Regarding G7A A60G A82U U87C U102C, the self-cleavage came out at 0.13.

Regarding C6U A67G A110U, the self-cleavage is 0.55.

In the case of G7A U49C A118G A140G, the self-cleavage turned out to be 1.92.

Consider C6U U103C U127A, for which the self-cleavage is 1.73.

On to A5G U133C U139A, for which the self-cleavage worked out at 0.57.

Take A5G G58U C105U: the self-cleavage amounted to 0.24.

With A5G U26C C42U A95G A110G, the self-cleavage is 0.22.

On to G7A C40A U57C U131C A134G, for which the self-cleavage was 0.72.

Regarding C6U A68G U97C A114C, the self-cleavage turned out to be 0.06.

On to C6A U19C U43C A118G, for which the self-cleavage was found to be 0.42.

C6A A24G A56C A82G U100A: the self-cleavage was found to be 0.05.

Regarding A5G U38C G58A A67G, the self-cleavage was determined as 1.38.

For G7A U38C A51G, the self-cleavage amounted to 2.32.

With A5U U37C A89U U102C, the self-cleavage amounted to 0.64.

As for A5G G21A G28C, the self-cleavage is 0.82.

As to A5G U9C A22G U26C A36G A64U U103A, the self-cleavage came out at 0.56.

For C6U A24C A60G A94G, the self-cleavage was found to be 1.6.

As for G8U A23G U39C, the self-cleavage was 1.39.

As to A5G A111C U132C, the self-cleavage is 0.05.

Take G7A A22G A24G: the self-cleavage was 1.02.

A5U A66G A116C: the self-cleavage was determined as 0.17.

As to A5U A56G U100C, the self-cleavage was 0.5.

For G7A A60G A92G, the self-cleavage turned out to be 1.84.

With U9A A66U A95G U97C C113U, the self-cleavage is 0.02.

In the case of A5G A91G G99A U102C A111G, the self-cleavage was found to be 0.13.

As for A5U G7A U9C U38C A129G U131A, the self-cleavage was 0.93.

In the case of G7U A64G A82G, the self-cleavage amounted to 0.67.

In the case of G7A A62G A67U G84U, the self-cleavage came out at 0.56.

On to A5G U19A C25G A94G A110G, for which the self-cleavage came out at 0.15.

For the variant U9A A91G A95G A111C U124C, the self-cleavage stood at 0.03.

Turning to G7U A18G A68G, the self-cleavage turned out to be 0.94.
